# Data reported in PubChem BioAssay AID488969 (Vanderbilt High Throughput Screening Facility, 2010).
# Over roughly 110,000 compounds, “z-score” has its median near -0.1; the highest 2% begin near 2. This is one part of the list. The source made the active and inactive calls.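 Rule for the calls: active = z-score in the third read window above 3 or below -3; inactive = the rest.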
# Target: Metabotropic glutamate receptor 8 (Rattus norvegicus) (UniProt P70579)
# Assay: mGluR8 Gi/Go-coupled signaling modulation – cell-based, rat, thallium flux, HTS, primary screen (AID 488969)
# Details: HEK293 rat mGluR8, GIRK (G protein-gated inwardly rectifying potassium channel) thallium flux, FluoZin2; at 10 µM; stronger effect = higher value; submaximal glutamate (EC20) added with thallium
# UniProt P70579, sequence (P70579 whole entry, looked up): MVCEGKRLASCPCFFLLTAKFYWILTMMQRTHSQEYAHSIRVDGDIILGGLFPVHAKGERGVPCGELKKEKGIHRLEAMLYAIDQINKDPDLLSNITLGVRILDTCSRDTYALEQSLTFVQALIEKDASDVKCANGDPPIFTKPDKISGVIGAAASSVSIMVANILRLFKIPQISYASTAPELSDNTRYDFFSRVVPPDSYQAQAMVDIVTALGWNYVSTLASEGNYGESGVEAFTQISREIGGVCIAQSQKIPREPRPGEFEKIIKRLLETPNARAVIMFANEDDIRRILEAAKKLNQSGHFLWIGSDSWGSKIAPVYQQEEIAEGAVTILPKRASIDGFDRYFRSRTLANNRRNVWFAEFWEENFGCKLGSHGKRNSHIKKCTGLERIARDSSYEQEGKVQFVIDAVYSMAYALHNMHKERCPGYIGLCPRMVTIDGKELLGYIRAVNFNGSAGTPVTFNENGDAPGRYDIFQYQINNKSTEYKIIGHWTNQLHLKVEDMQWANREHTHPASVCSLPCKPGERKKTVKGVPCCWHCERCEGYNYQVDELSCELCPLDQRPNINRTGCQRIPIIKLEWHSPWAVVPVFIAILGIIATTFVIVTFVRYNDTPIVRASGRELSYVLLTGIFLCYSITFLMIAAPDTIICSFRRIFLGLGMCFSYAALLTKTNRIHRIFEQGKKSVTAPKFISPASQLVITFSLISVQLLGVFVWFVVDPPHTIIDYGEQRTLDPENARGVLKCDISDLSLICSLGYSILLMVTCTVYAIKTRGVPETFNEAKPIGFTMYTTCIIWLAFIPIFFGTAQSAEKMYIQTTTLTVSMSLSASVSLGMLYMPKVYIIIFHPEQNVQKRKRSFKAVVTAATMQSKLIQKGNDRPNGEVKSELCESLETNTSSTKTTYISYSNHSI
row,Compound,z-score
1,O=S(=O)(NCC1CCCO1)c1ccc(S(=O)(=O)N2CCc3ccccc3C2)cc1 (configuration not stated),0.1
2,CCC(C)N(C(=O)COC(=O)/C=C/c1ccc(O)c(OC)c1)C1CCS(=O)(=O)C1 (configuration not stated),0.211
3,COc1cccc(C(=O)N2CCN(Cc3ccc4c(c3)OCO4)CC2)c1OC,0.584
4,O=C(COC(=O)CCCSc1nc2ccccc2[nH]1)NC(=O)NC1CCCC1,-0.664
5,O=C(Nc1ccc2[nH]c(=S)sc2c1)c1ccccc1,active: 11.9
6,Fc1ccc(OCCOCCNCC2CCCO2)cc1 (configuration not stated),0.411
7,COc1ccc2c(C)cc(SCn3nnc4ccccc4c3=O)nc2c1,-0.169
8,Cn1nc([N+](=O)[O-])c(C(C#N)c2nc3ccccc3n2C)c(Cl)c1=O (configuration not stated),0.13
9,COC(=O)c1cn(NC(=O)c2cc(OC)cc(OC)c2)c(=O)c2ccccc12,-0.347
10,Cc1ccnc(Sc2ncccc2[N+](=O)[O-])n1,-0.064
11,O=c1[nH]c(=O)n(Cc2ccccc2)c2c1C(C(F)(F)F)(C(F)(F)F)N=C(c1ccco1)N2,-0.882
12,CCc1nnc(NC(=O)CN2CCN(c3nc(-c4ccccc4)cs3)CC2)s1,-0.549
13,COC(=O)c1ccc(OCC(O)Cn2nnc3ccccc32)cc1 (configuration not stated),-0.0658
14,COc1ccccc1-n1cnnc1SCC(=O)Nc1cc(C(C)(C)C)nn1-c1ccccc1,-0.532
15,CCS(=O)(=O)Nc1cccc(-c2cc(-c3ccccc3)c3cc(C)ccc3n2)c1,0.0339
16,COC(=O)CCC(=O)c1oc2ccc(Br)cc2c1N,-0.218
17,O=C(NCc1ccc2c(c1)OCO2)c1nn2cccnc2c1Cl,-0.119
18,O=S(=O)(NCCc1cn2ccccc2n1)c1cccs1,-0.209
19,O=C(CSc1nc2ccccc2s1)NC1CCCc2ccccc21 (configuration not stated),-0.233
20,Cc1ccc2c(Cl)c(C(=O)NCCc3ccccc3)sc2c1,-0.648
21,COc1ccc(C2CC(c3ccccc3)Nc3ncnn32)cc1 (configuration not stated),-0.0835
22,COc1ccc(C(=O)Oc2ccc(/C=N/NC(=O)Cc3ccc([N+](=O)[O-])cc3)cc2)cc1,0.194
23,COc1ccc(OC)c(S(=O)(=O)NCCC2=CCCCC2)c1,0.351

row,Compound,z-score
1,O=C(CCn1c2c(c3ccccc31)CCCC2)NNC(=O)c1ccccc1[N+](=O)[O-],0.0578
2,Cn1c(=O)c2c(ncn2CC(=O)N2CCCc3ccccc32)n(C)c1=O,-0.221
3,CN(C)S(=O)(=O)c1ccc(S(=O)(=O)N(Cc2ccco2)Cc2ccccc2Cl)cc1,-0.0415
4,Cc1cc(-c2ccccc2)n(-c2ccc(C(=O)N3CCN(c4ncccn4)CC3)cc2)n1,-0.572
5,Nc1nc(N)nc(-c2ccccc2)n1,0.212
6,CCCc1nnc(NC(=O)Cn2c(=O)sc3ccccc32)s1,-0.0252
7,O=C(Nc1cccc(Cl)c1)c1ccc2c(=O)n3c(nc2c1)CCCCC3,0.0126
8,CCCCCC(=O)Nc1nc(C)c(-c2csc(Nc3cc(Cl)ccc3OC)n2)s1,-0.438
9,COc1ccc2oc(=O)c(/C(C)=N/NC(=O)c3ccncc3)cc2c1,-0.0773
10,Cc1cccc(N2C(=O)CC(N(O)c3ccccc3)C2=O)c1 (configuration not stated),-0.319
11,COc1ccc(OC)c(N2C(=O)[C@@H]3C(c4ccccc4Cl)=NO[C@@H]3C2=O)c1,0.0684
12,Cc1ccccc1Cn1cc(S(=O)(=O)CC(=O)Nc2nccs2)c2ccccc21,0.23
13,COC(=O)C1=C(C)N=C2SC(C)C(=O)N2C1c1cccc(F)c1 (configuration not stated),-0.721
14,CC1Cc2ccccc2N1C(=O)CNCCCN(C)C (configuration not stated),-0.471
15,Cn1cc(Cl)c(C(=O)OCC(=O)Nc2ccccc2)n1,-0.0575
16,COc1ccc(-c2c(C)n([O-])c3c([n+]2=O)CCCCC3)cc1,-0.0733
17,CCOc1ccccc1/C=c1\sc2nc(-c3ccco3)nn2c1=O,-1.26
18,COc1ccc(CCn2c(SCC(=O)Nc3cc(C)on3)nc3ccccc3c2=O)cc1OC,-0.632
19,COc1ccc(S(=O)(=O)N2CCC(C(=O)NCc3ccccn3)CC2)cc1Cl,-0.477
20,CC(C)CNC(=O)C1CC(=O)OC12CCCCC2 (configuration not stated),0.0145
21,Cn1c(N)c(C(=O)COC(=O)C2CCC(C(C)(C)C)CC2)c(=O)n(C)c1=O (configuration not stated),0.181
22,COc1ccc(C(=O)NNC2CC(=O)N(Cc3ccc(Cl)cc3)C2=O)cc1OC (configuration not stated),-0.305
23,Cc1cc(-c2n[nH]c(=S)n2/N=C/C=C/c2ccccc2)n[nH]1,-0.122

row,Compound,z-score
1,Cc1ccc(S(=O)(=O)N(Cc2ccccc2)c2ccccc2C(=O)NCc2ccco2)cc1,-0.308
2,CCCCCCCC(=O)NN=C1CCN(Cc2ccccc2)CC1,-0.377
3,CCOc1ccc(C(Nc2ccc(C)cc2)P2(=O)OCCC(C)O2)cc1 (configuration not stated),-0.269
4,Cn1c(=O)c2c(nc(N3CCOCC3)n2C)n(C)c1=O,-0.101
5,Cc1c(Cl)cnc(NC(=O)COC(=O)c2ccc(S(=O)(=O)NCc3ccco3)cc2)c1Cl,-0.169
6,COC(=O)c1cnc2c(c1C(=O)OC)c(=O)n(C)c(=O)n2C,0.485
7,CC(C)(C)C(=O)CSc1nccc(=O)[nH]1,0.0433
8,COc1ccc(OCC(=O)c2c(O)c3ccccc3oc2=O)cc1,0.247
9,CNc1nc(SC)nc(N(C#N)CC(=O)OC)n1,-0.301
10,COCC(=O)Nc1ccccc1C#N,-0.0192
11,COc1cc(NC(C)C(=O)N2CC(C)OC(C)C2)cc(OC)c1 (configuration not stated),0.154
12,CC(C)C1C(C#N)=C(N)SC(N)=C1C#N,0.282
13,Cc1ccc2nc(SCC(=O)NCC3CCCO3)c(C#N)cc2c1 (configuration not stated),-0.315
14,O=C(NCCCN1CCOCC1)c1cc2ccccc2oc1=O,-0.716
15,c1ccc2sc(Sc3ncnc4sccc34)nc2c1,-0.464
16,COc1ccccc1N1CCN(C(=O)Cn2c(=O)[nH]c3ccsc3c2=O)CC1,-0.563
17,Cc1ccc(NC(=O)Cc2ncc(C(F)(F)F)cc2Cl)cc1Cl,0.904
18,Cc1c(NC(=O)c2cnn3c(C(F)(F)F)cc(-c4ccco4)nc23)c(=O)n(-c2ccccc2)n1C,0.95
19,Cc1cccc(OCC2=N/C(=C\N(C)C)C(=O)O2)c1,-0.718
20,CCN1CC(C)C(O)(c2ccccc2)CC1C (configuration not stated),0.0176
21,CCOC(=O)c1nnc(-c2ccc(C)cc2)nc1Sc1ccc(Cl)cc1,-0.269
22,Cc1cc2ccc(C)c(C)c2nc1SCC#N,0.515
23,CCN1C(=O)N(C)C(N(O)C(=O)NC)C1(C)C (configuration not stated),-0.0429

row,Compound,z-score
1,C=CC(=O)NC(C)(C)Cc1ccccc1,0.41
2,CCCc1cc2c(cc1NC(=O)c1ccccc1Cl)OCO2,-0.5
3,O=C(NC1CCCCC1)C(c1ccc(Cl)cc1)N(C(=O)c1cnccn1)c1ccc2c(c1)OCO2 (configuration not stated),-0.582
4,CCOC(=O)C1=C(C)N=C2SC(C)C(=O)N2C1c1ccc(OC(C)=O)c(OC)c1 (configuration not stated),0.228
5,CS(=O)(=O)N1CCN(c2ccccc2NC(=O)c2ccco2)CC1,-0.175
6,Cc1c(C(=O)O)sc(=S)n1-c1ccc(Cl)cc1,-0.229
7,CCN1CCN(Cc2oc(CO)cc(=O)c2O)CC1,-0.236
8,O=C(Cn1cnc2c(nnn2Cc2ccc(F)cc2)c1=O)NCc1ccco1,-0.298
9,COc1ccc(OC)c(NC(=O)CSc2nc3ccccc3c3nc4ccccc4n23)c1,-0.122
10,CCOC(=O)C(C)Sc1nc(C2CC2)cc(C(F)(F)F)c1C#N (configuration not stated),1.1
11,COC(=O)c1c(NC(=O)COC(=O)[C@@H](NS(=O)(=O)c2ccccc2)C(C)C)sc2c1CCC2,0.129
12,Cc1nnc(NC(=O)CSc2nc3ccccc3o2)s1,0.0274
13,COc1ccc2cc(CCNC(=O)C3CC3)c(=O)[nH]c2c1,0.115
14,CCCOC(=O)c1ccc(NC(=O)c2cc(Cl)ccc2OC)cc1,-0.0866
15,Nc1c(-c2ccccc2Cl)cnn1-c1cccc([N+](=O)[O-])c1,-0.243
16,CC(C)N1CC(O)=C(c2nc3ccccc3[nH]2)C1=N,0.0228
17,Cc1nnc(SCC(=O)Nc2ccccc2N2CCOCC2)s1,-0.0127
18,C=C1CSc2nc3ccccc3c(=O)n21,0.0912
19,CCCCc1ccc(NC(=S)Nc2ccc(Cl)c(S(=O)(=O)N(C)C)c2)cc1,active: 5.93
20,COc1cccc(-n2nc(-c3ccnn3-c3ccc(C)cc3)c(=O)n(C)c2=O)c1,-1.29
21,Cc1nnc(-n2cnc3ccccc32)c2ccccc12,-0.132
22,Cc1cc(C(=O)CSc2nnnn2-c2ccc(Cl)cc2)c(C)n1CC1CCCO1 (configuration not stated),-1.51
23,CCNC(=O)/C(C#N)=C/c1c(N2CCOCC2)nc2ccccn2c1=O,-0.125

row,Compound,z-score
1,CCOC(=O)c1ccc(NC(=O)Nc2ccn(C)n2)cc1,0.403
2,COc1cccc(Cn2nnc(C(=O)NCc3ccc(F)cc3)c2N)c1,-0.899
3,O=C(CN1CCN(CCOCCO)CC1)N1c2ccccc2Sc2ccc(Cl)cc21,-0.0439
4,Cn1cc(Cl)c(C(=O)NC2CCCC2)n1,0.534
5,OCCN=C(c1ccccc1)C12CN3CN(CN(C3)C1)C2,-0.677
6,CCOC(=O)c1[nH]c(C)c(C(=O)NCc2ccc(C)cc2)c1C,-0.482
7,COCCN(C(=S)Nc1ccc(OC)cc1)C(C)c1cccs1 (configuration not stated),-0.321
8,Cc1ccc(-c2nnc(Nc3ccc(C(N)=O)cc3)c3ccccc23)cc1S(=O)(=O)NCC1CCCO1 (configuration not stated),-2.16
9,CC1CCc2nc(NC(=O)Nc3ccc4c(c3)OCO4)sc2C1 (configuration not stated),-0.337
10,Nc1nc(Cl)nc2ccc(Br)cc12,-0.0458
11,CCOC(=O)N1CCC(N(CCN(C)C)C(=S)Nc2cccc(Cl)c2C)CC1,0.0224
12,COc1cccc(CNc2cnc3ccccc3c2)c1O,-0.377
13,CN(C)S(=O)(=O)c1ccc(C(=O)Nc2nnc(SCc3cccc4ccccc34)s2)cc1,-0.381
14,Cc1cccc(NC(=S)c2nc3ccccc3s2)c1,0.84
15,O=C(Nc1ccc(Cl)c(Cl)c1)N(Cc1cccnc1)Cc1ccco1,-0.687
16,COC(=O)c1ccccc1NC(=O)C12CCC(C)(C(=O)O1)C2(C)C (configuration not stated),-0.229
17,CC1Cc2ccccc2N1C(=S)NC(=O)c1ccc(Cl)cc1Cl (configuration not stated),active: 13.5
18,O=C1CCC(=O)N1c1ccc(NCc2ccccc2Cl)c([N+](=O)[O-])c1,-0.118
19,CC(C)CNC(=S)NC1CCCC1,-0.161
20,C=CCOc1ccc(CNC(C)(C)C)cc1OC,-0.186
